# From PubChem BioAssay AID1745853 (National Center for Advancing Translational Sciences (NCATS), 2022)
# The list shows a part of the results. Further columns of the screen follow, without active or inactive calls.
# Experiments:
# Assay in all cases: Primary Screen for Target Class Profiling of Small Molecule Inhibitors of Methyltransferases
# [1] = molecular target: Glycine N-methyltransferase (Homo sapiens) (UniProt Q14749); settings: purified enzyme, MTase-Glo SAH luminescence; measured here: GNMT inhibition; at 40 µM; stronger effect = lower value
# How it was run: (§1)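 Each enzyme was assayed with SAM and its substrate. SAH formation detected by MTase-Glo luminescence; single-point 40 uM screen[…].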
# [2] = molecular target: Guanidinoacetate N-methyltransferase (Homo sapiens) (UniProt Q14353); settings: purified enzyme, MTase-Glo SAH luminescence; measured here: GAMT inhibition; at 40 µM; stronger effect = lower value
# How it was run: as §1
# [3] = molecular target: Histamine N-methyltransferase (Homo sapiens) (UniProt P50135); settings: purified enzyme, MTase-Glo SAH luminescence; measured here: HNMT inhibition; at 40 µM; stronger effect = lower value
# How it was run: as §1
# [4] = molecular target: Nicotinamide N-methyltransferase (Homo sapiens) (UniProt P40261); settings: purified enzyme, MTase-Glo SAH luminescence; measured here: NNMT inhibition; at 40 µM; stronger effect = lower value
# How it was run: as §1
# [5] = molecular target: Phenylethanolamine N-methyltransferase (Homo sapiens) (UniProt P11086); settings: purified enzyme, MTase-Glo SAH luminescence; measured here: PNMT inhibition; at 40 µM; stronger effect = lower value
# How it was run: as §1
# % is scaled to controls: 0 for no effect and ±100 for the full control effect.
structure (smiles),measurement,setting,value
O=C(CCc1nnc2n(Cc3ccc(F)cc3)c(=O)c3ccccc3n12)N1CCN(c2ccccc2)CC1,"activity change, negative = inhibition",[1],-4.19%
same,"activity change, negative = inhibition",[2],3.37%
same,"activity change, negative = inhibition",[3],-1.89%
same,"activity change, negative = inhibition",[4],-12.2%
same,"activity change, negative = inhibition",[5],-4.79%
O=C(O)CC1CCC(c2ccc(-c3ccc4nc(C(=O)NCc5ccc(OC(F)(F)F)cc5)cn4c3)cc2)CC1 (stereo not given),"activity change, negative = inhibition",[1],-1.14%
same,"activity change, negative = inhibition",[2],-9.79%
same,"activity change, negative = inhibition",[3],-3.53%
same,"activity change, negative = inhibition",[4],-15.9%
same,"activity change, negative = inhibition",[5],-8.38%
C[N+]1(C)[C@@H]2C[C@@H](OC(=O)C(O)(c3cccs3)c3cccs3)C[C@H]1[C@@H]1O[C@@H]12,"activity change, negative = inhibition",[1],5.69%
same,"activity change, negative = inhibition",[2],2.9%
same,"activity change, negative = inhibition",[3],4.32%
same,"activity change, negative = inhibition",[4],-8.35%
same,"activity change, negative = inhibition",[5],-4.18%
O=C(NCCCn1ccnc1)c1cc(-c2ccco2)on1,"activity change, negative = inhibition",[1],4.78%
same,"activity change, negative = inhibition",[2],-1.82%
same,"activity change, negative = inhibition",[3],3.42%
same,"activity change, negative = inhibition",[4],-11.3%
same,"activity change, negative = inhibition",[5],-0.818%
COCc1nc(C2CCN(C(=O)NCC(C)C)C2)no1 (stereo not given),"activity change, negative = inhibition",[1],-4.2%
same,"activity change, negative = inhibition",[2],-2%
same,"activity change, negative = inhibition",[3],-0.407%
same,"activity change, negative = inhibition",[4],-7.84%
same,"activity change, negative = inhibition",[5],-12.5%
Cc1cc(C)cc(NS(=O)(=O)c2ccc3[nH]c4c(c3c2)CCCC4)c1,"activity change, negative = inhibition",[1],-0.617%
same,"activity change, negative = inhibition",[2],0%
same,"activity change, negative = inhibition",[3],-4.75%
same,"activity change, negative = inhibition",[4],-17.6%
same,"activity change, negative = inhibition",[5],1.12%
CC(C)CCn1c(=O)c2ccccc2n2c(CCC(=O)NCc3ccccc3Cl)nnc12,"activity change, negative = inhibition",[1],-8.78%
same,"activity change, negative = inhibition",[2],0.485%
same,"activity change, negative = inhibition",[3],6.14%
same,"activity change, negative = inhibition",[4],-8.05%
same,"activity change, negative = inhibition",[5],-12.7%
CCCCNC(=O)Cn1c(=O)oc2cc(S(=O)(=O)N3CC(C)CC(C)C3)ccc21 (stereo not given),"activity change, negative = inhibition",[1],-0.239%
same,"activity change, negative = inhibition",[2],0%
same,"activity change, negative = inhibition",[3],5.1%
same,"activity change, negative = inhibition",[4],1.88%
same,"activity change, negative = inhibition",[5],-9.23%
CC1CC(C)CN(C(=O)Cn2c(=O)oc3cc(S(=O)(=O)N4CC(C)CC(C)C4)ccc32)C1 (stereo not given),"activity change, negative = inhibition",[1],-7.84%
same,"activity change, negative = inhibition",[2],3.43%
same,"activity change, negative = inhibition",[3],1.38%
same,"activity change, negative = inhibition",[4],-3.67%
same,"activity change, negative = inhibition",[5],-5.5%
CCn1ccnc1CN(C)c1cc(C2CC(N)C2)nc(COC)n1 (stereo not given),"activity change, negative = inhibition",[1],-7.59%
same,"activity change, negative = inhibition",[2],-15.8%
same,"activity change, negative = inhibition",[3],-13.5%
same,"activity change, negative = inhibition",[4],-17.2%
same,"activity change, negative = inhibition",[5],-6.27%
Cc1c(Cl)cccc1NS(=O)(=O)c1ccc2[nH]c3c(c2c1)CCCC3,"activity change, negative = inhibition",[1],-5.96%
same,"activity change, negative = inhibition",[2],1.54%
same,"activity change, negative = inhibition",[3],-4.59%
same,"activity change, negative = inhibition",[4],-28.3%
same,"activity change, negative = inhibition",[5],-2.8%
CC1CCCCC1NC(=O)C1(C)Cn2c(cc3occc32)C(=O)N1Cc1ccccc1Cl (stereo not given),"activity change, negative = inhibition",[1],5.53%
same,"activity change, negative = inhibition",[2],0%
same,"activity change, negative = inhibition",[3],5.93%
same,"activity change, negative = inhibition",[4],3.63%
same,"activity change, negative = inhibition",[5],2.23%
CC(C)(C)C(=O)Oc1ccc(S(=O)(=O)Nc2ccccc2C(=O)NCC(=O)O)cc1,"activity change, negative = inhibition",[1],4.45%
same,"activity change, negative = inhibition",[2],12.4%
same,"activity change, negative = inhibition",[3],8.4%
same,"activity change, negative = inhibition",[4],-3.82%
same,"activity change, negative = inhibition",[5],3.08%
CN1C(=O)c2cc(C(=O)NCCN3CCCCC3)nn2CC1(C)C(=O)NC1CCCCCC1 (stereo not given),"activity change, negative = inhibition",[1],4.35%
same,"activity change, negative = inhibition",[2],0%
same,"activity change, negative = inhibition",[3],0.28%
same,"activity change, negative = inhibition",[4],9.77%
same,"activity change, negative = inhibition",[5],0.734%
Cc1cc(C)c(-n2cc(C)c3c(Cl)nc(C)nc32)c(C)c1,"activity change, negative = inhibition",[1],4.04%
same,"activity change, negative = inhibition",[2],-2.02%
same,"activity change, negative = inhibition",[3],8.52%
same,"activity change, negative = inhibition",[4],-28.6%
same,"activity change, negative = inhibition",[5],-2.18%
CSc1ccc2c(c1)C(N1CCN(C)CC1)Cc1ccccc1S2 (stereo not given),"activity change, negative = inhibition",[1],9.47%
same,"activity change, negative = inhibition",[2],11.9%
same,"activity change, negative = inhibition",[3],-0.762%
same,"activity change, negative = inhibition",[4],-73.2%
same,"activity change, negative = inhibition",[5],0.757%
COc1ccc(OC)c2c1cc1n2CC(C)(C(=O)NC2CCCCC2C)N(Cc2ccco2)C1=O (stereo not given),"activity change, negative = inhibition",[1],-18.7%
same,"activity change, negative = inhibition",[2],-0.601%
same,"activity change, negative = inhibition",[3],-2.91%
same,"activity change, negative = inhibition",[4],-13.5%
same,"activity change, negative = inhibition",[5],-40%
CCN(CC)CCCNC(=O)c1cc2n(n1)CC(C)(C(=O)NCc1ccc(F)cc1)N(C)C2=O (stereo not given),"activity change, negative = inhibition",[1],1.03%
same,"activity change, negative = inhibition",[2],3.95%
same,"activity change, negative = inhibition",[3],0.302%
same,"activity change, negative = inhibition",[4],3.4%
same,"activity change, negative = inhibition",[5],2.51%
CC(=O)OC[C@H]1O[C@H](O[C@]2(CO)O[C@H](CO)[C@@H](OC(=O)/C=C/c3ccccc3)[C@@H]2O)[C@H](O)[C@@H](O)[C@@H]1O,"activity change, negative = inhibition",[1],-3.01%
same,"activity change, negative = inhibition",[2],-2.71%
same,"activity change, negative = inhibition",[3],11%
same,"activity change, negative = inhibition",[4],-15.5%
same,"activity change, negative = inhibition",[5],-9.24%
